According to the supplement of paper PMC3334620:
The full ranking holds about 33,000 sequences; the median of “E-score (-0.5 to 0.5)” is about -0.035, and the highest 2% start at about 0.34. Some of the results follow.

Biological target: T1, Mot3 (UniProt P54785)
T1 sequence: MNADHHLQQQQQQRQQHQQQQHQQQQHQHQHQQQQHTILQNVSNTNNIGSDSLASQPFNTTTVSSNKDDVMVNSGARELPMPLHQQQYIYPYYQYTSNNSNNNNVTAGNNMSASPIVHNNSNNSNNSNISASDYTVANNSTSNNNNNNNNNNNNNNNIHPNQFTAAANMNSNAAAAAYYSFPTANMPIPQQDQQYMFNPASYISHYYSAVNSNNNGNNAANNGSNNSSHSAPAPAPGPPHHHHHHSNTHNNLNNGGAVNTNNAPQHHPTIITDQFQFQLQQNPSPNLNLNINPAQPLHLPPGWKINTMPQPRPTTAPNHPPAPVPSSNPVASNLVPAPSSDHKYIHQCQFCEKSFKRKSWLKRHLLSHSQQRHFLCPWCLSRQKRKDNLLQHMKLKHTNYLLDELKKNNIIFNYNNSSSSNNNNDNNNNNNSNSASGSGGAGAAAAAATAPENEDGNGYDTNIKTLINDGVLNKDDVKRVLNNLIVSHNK
Test: PBM E-score (8-mer binding enrichment) (E-score (-0.5 to 0.5)); higher = stronger / more preferred TF binding; most listed sequences are background and not binding sites
Conditions: protein concentration: 200 nM; construct: GST-full length
Method: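 Universal 'all 10-mer' protein binding microarrays (Agilent AMADID 015681) probed with GST-tagged S. cerevisiae TFs (full-length or DBD) made by in vitro transcription/translation (PURExpress), about 100-200 nM. Bound TF was detected with fluorescent anti-GST. Each ungapped 8-mer (which stands for itself and its reverse complement) is scored by the PBM enrichment score (E-score), a modified Wilcoxon-Mann-Whitney statistic from -0.5 to +0.5, computed with the Universal PBM Analysis Suite. Scale: above 0.35 generally sequence-specific binding.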

| Sequence | PBM E-score |
| --- | --- |
| CGACCGAG | -0.308 |
| GTGGGAGA | -0.222 |
| CAACTTGC | -0.0812 |
| CATCGAGA | -0.133 |
| AAAATTGC | 0.0171 |
| AGCTCTGG | -0.238 |
| CGCGCACA | 0.0112 |
| AAAATGTC | 0.0358 |
| AAATCCCC | -0.208 |
| CCAGAGCG | -0.325 |
| ACGTCTAC | 0.0656 |
| AACTTGGC | 0.139 |
| AGCCTGAA | 0.223 |
| ATGCTCGC | -0.0921 |
| CTAACTAA | -0.0879 |
| AAGTCGCC | -0.135 |
| GTGGGCAA | 0.0173 |
| CCTGGACC | -0.141 |
| ACCCCACG | -0.0319 |
| ATCGGAAC | -0.146 |
| GCGCTAAC | 0.0565 |
| CAGGCAAA | 0.481 |
| CATGAATA | 0.055 |
| ACACACTC | 0.123 |

| Sequence | PBM E-score |
| --- | --- |
| AACGCCTA | 0.122 |
| CGGGAACG | -0.287 |
| ACCCCGAG | -0.137 |
| AGTCCTCG | -0.234 |
| AGGCCTGC | -0.199 |
| GGAGCGGA | -0.366 |
| AAGTGTGG | -0.129 |
| ATCACACA | 0.143 |
| CATCGACA | -0.0588 |
| ACCATTGG | -0.0313 |
| ACTGACGG | -0.296 |
| ACTCCCTC | -0.312 |
| GACGCATA | 0.029 |
| AGACCACG | -0.314 |
| GTGGAAAA | 0.0872 |
| GTGCGAAA | 0.0374 |
| AGGACTTC | -0.217 |
| AAACAAGA | 0.191 |
| GGTGAGTA | 0.0296 |
| AGCAGCGC | 0.0375 |
| CCAGCGTC | -0.408 |
| CACTCATC | -0.147 |
| CGCGCCAC | -0.141 |
| AGACCCAA | -0.222 |

| Sequence | PBM E-score |
| --- | --- |
| AGTAGCAA | 0.0301 |
| CAAAACCC | 0.023 |
| GTCAATTA | 0.134 |
| ACGGTGCG | 0.0148 |
| ACACGAAA | 0.279 |
| TAGTTATA | 0.171 |
| CGCGATCC | -0.0665 |
| GACAATGC | 0.123 |
| GAGATCCA | -0.28 |
| AATTCCGA | 0.0959 |
| AGATCTGG | -0.227 |
| AGAGATTC | -0.0172 |
| GGCAACAA | 0.31 |
| ACATGCCT | 0.366 |
| ATTCTGAG | 0.0253 |
| TATTGTCA | -0.117 |
| ATTTCACA | 0.152 |
| CATCTTCG | -0.187 |
| GTCACTGA | -0.15 |
| CTTACAAA | 0.15 |
| ACCGCCGA | -0.0975 |
| CACACGTC | 0.197 |
| AAGTCACT | 0.0807 |
| CAGATGTC | -0.239 |

| Sequence | PBM E-score |
| --- | --- |
| ACTCCCGG | -0.182 |
| CCCCGTAC | -0.258 |
| GGCTGCCA | -0.192 |
| AACGGAGC | -0.015 |
| AGACACCG | -0.0613 |
| ACCCATGC | 0.0158 |
| TCATCAGA | -0.15 |
| AACCAACG | -0.0703 |
| TATTTCGA | 0.0769 |
| GGTGGTAC | -0.157 |
| GAGGAAGC | -0.225 |
| ATGACAGC | -0.208 |
| CTCAGCTC | -0.243 |
| CCTCCCTA | -0.172 |
| GATGGAGA | -0.26 |
| AAGATCTC | -0.0117 |
| GGGAACAC | 0.0104 |
| CGACCAAC | -0.0351 |
| AATACTAG | 0.225 |
| ACGGGGCC | -0.252 |
| CTTTAAGC | -0.00833 |
| CTCGATCC | -0.161 |
